According to PubChem BioAssay AID1508623 (National Center for Advancing Translational Sciences (NCATS), 2021):
Among all 48,000 compounds or so, about 450 (0.94%) were called active. Not shown: some 19% with an inconclusive outcome. Calls follow the shape of the dose curve; as a rule, active = well fitted inhibition curve with a large enough effect; inconclusive = small, poorly fitted or top-dose-only effect; inactive = no such curve, though single readings can be large or run the other way. The list shows a part of the results.

Assay: Primary qHTS for Identification of Small Molecule Inhibitors of Huntingtin Promoter Activity; also: nearly all actives have a fitted effect of over 50% in size
Conditions: HEK293 HTT promoter firefly luciferase reporter (activity 0% = vehicle and -100% = no light), 24 h; series mostly up to 57.5 µM; activity change, negative = inhibition: at the top concentration
Summary of the method: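 HEK293 luciferase promoter-reporter cells (2,500/well) plated 24 h, then compounds added at up to 57.5 uM final for 24 h at 37 °C. Firefly luminescence by Dual-Glo, normalized to vehicle (0%) and zero RLU (-100%).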
Potency is read from the fitted curve at half-maximal effect.

Compound | activity change, negative = inhibition | Potency
O=C(CCCCn1c(=O)c2ccccc2n(CC(=O)Nc2ccc(F)cc2F)c1=O)NCCc1ccccc1 | inactive: 4.59% | –
COC(=O)c1c(NC(=O)Cc2coc3ccc(C(C)C)cc23)sc2c1CCC2 | inactive: -23.6% | –
CC(C)Oc1ccc(C(=O)NCC(c2ccc(N(C)C)cc2)N2CCCC2)cc1 (stereo unspecified) | inactive: 13.6% | –
CCOc1ccccc1NC(=O)CCNS(=O)(=O)c1cccc2nonc12 | inactive: -8.48% | –
COc1cc(C(=O)Nc2ccc3c(c2)N(C2CCCC2)C(=O)c2ccccc2S3)cc(OC)c1OC | inactive: 3.81% | –
CCOc1ccccc1NC(=O)C1CCCN1S(=O)(=O)c1ccc2c(c1)C(C)(C)C(=O)N2C (stereo unspecified) | inactive: -30.6% | –
Cc1cc(NC(=O)c2ccc3c(c2)OCCO3)cc(-c2nc3ccccc3o2)c1O | inactive: -10.9% | –
COc1ccc(NC(=O)N2CCOc3ccc(Cl)cc32)cc1 | inactive: 15.3% | –
Nc1c(C(=O)Nc2ccccc2F)sc2nc3c(cc12)CCCCCC3 | inactive: 8.14% | –
CCOC(=O)c1c(NC(=O)c2cc3nc(-c4ccc(Br)cc4)cc(C(F)(F)F)n3n2)sc(C(C)=O)c1C | inactive: -4.43% | –
COc1ccc(Cc2nc3c4cnn(-c5ccccc5F)c4ncn3n2)cc1 | inactive: -24.3% | –
CCCCNC(=O)c1cc(-c2ccc(OC)cc2)nc2n[nH]c(-c3cccc([N+](=O)[O-])c3)c12 | inactive: -25.7% | –
CCc1ccc(NC(=O)CCNS(=O)(=O)c2ccc3c(c2)oc(=O)n3C)cc1 | inactive: 66% | –
CCOC(=O)c1ccccc1NC(=O)CN1CCCN(Cc2cccc(Cl)c2)S1(=O)=O | inactive: -21.8% | –
CCN(CC)CCCNC(=O)c1nn(C)c2c1CSc1ccccc1-2 | inactive: -12.2% | –
CCN(CC)c1ccc(C(=O)NCc2ccc3c(c2)CCN3C(=O)c2ccc(F)cc2)cc1 | inactive: -17.9% | –
Cc1ccc(CNC(=O)c2ccc3c(c2)nc2n3CCOC2)cc1 | inactive: 6.07% | –
Cc1ccc(-n2nc(C)c3c(C(=O)NCCc4ccccc4)cc(C)nc32)cc1 | inactive: -27.8% | –
COc1ccc(C(C)=O)cc1CSc1nc(NCCc2ccccc2)c2ccccc2n1 | inactive: -0.805% | –
COc1ccc(NC(=O)CCc2nc3c(C)nn(-c4ccc(C)cc4)c3n(C)c2=O)cc1 | inactive: 2.98% | –
CCCS(=O)(=O)c1c(S(=O)(=O)CCC)c2cc(CC)ccn2c1C(=O)c1ccc(Cl)cc1 | inactive: -27.3% | –
COc1ccc(Cl)cc1CNCCSc1nnnn1-c1ccccc1 | inactive: -1.56% | –
COc1ccc(C2NC(=O)N(C)C3=C2C(=O)N(c2cccc(C(=O)O)c2)C3)cc1 (stereo unspecified) | inactive: -38.7% | –
COc1ccc(S(=O)(=O)Nc2cc3c(C(=O)OC(C)C)c(C)oc3c3ccccc23)cc1 | inactive: -40.5% | –

Compound | activity change, negative = inhibition | Potency
COc1ccc(CNC(=O)CN2C(=O)CCn3nc(-c4ccccc4)cc32)c(OC)c1 | inactive: -5.61% | –
Cc1oc2ncn(C)c(=O)c2c1C(=O)NCc1ccc(Cl)cc1 | inactive: 14.3% | –
Cn1c(Nc2ccc(Cl)cc2)cc(=O)n(C)c1=O | inactive: 7.06% | –
CC1=C(C(=O)Nc2ccc(C)cc2C)C(c2ccc(O)cc2)n2nc(SCC(=O)c3ccc(C)cc3)nc2N1 (stereo unspecified) | inactive: -8.69% | –
COc1ccc(-c2nn3c(=O)cc(CN4CCN(S(=O)(=O)c5ccc(C)cc5)CC4)nc3s2)cc1 | inactive: -5.3% | –
Cc1cc(OCC(O)CN2CCN(c3cccc(Cl)c3)CC2)ccc1Cl (stereo unspecified) | inactive: -10.5% | –
COc1ccc(C(=O)Nc2ccc(S(=O)(=O)N(Cc3ccccc3)c3ccccc3)cc2)cc1 | – | active: 5.01 µM
CC(C)Cc1nn2c(=O)cc(COC(=O)c3ccccc3NC(=O)C3CCCCC3)nc2s1 | inactive: -15.3% | –
Cc1ccc(S(=O)(=O)NCc2nc3cccnc3n2Cc2ccccc2Cl)c(C)c1 | inactive: -17.5% | –
CCc1nnc2c(Nc3ccc(N(CC)CC)cc3C)nc3ccccc3n12 | inactive: 12% | –
Cc1cc(S(=O)(=O)Nc2ccc(C(=O)O)cc2)c(C)c(S(=O)(=O)c2ccc(Cl)cc2)c1 | inactive: -12% | –
COc1cccc(NS(=O)(=O)c2ccc3c(c2)N(C)C(=O)CC(=O)N3C)c1 | inactive: -7.31% | –
COc1ccc(C)cc1NC(=O)c1cn(C)c(=O)c2cc(OC)c(OC)cc12 | inactive: -5.53% | –
COc1ccccc1NC(=O)CN1C(=O)c2ccccc2Sc2ccc(C(=O)N3CCCC3)cc21 | inactive: -28% | –
CCc1ccccc1NC(=O)N1CC(C)Sc2ccccc21 (stereo unspecified) | inactive: -7.99% | –
CC(=O)c1ccccc1OCC(O)Cn1c(CO)nc2ccccc21 (stereo unspecified) | inactive: -11.2% | –
CC1CN(C(=O)N2CCC(C(=O)NCc3ccco3)CC2)c2ccccc2O1 (stereo unspecified) | inactive: -0.668% | –
CCCCC(F)(F)[C@@]1(O)CC[C@H]2[C@H](CC(=O)[C@@H]2CCCCCCC(=O)O)O1 | inactive: -0.921% | –
CC1CCN(c2nc3ccccc3nc2C(F)(F)F)CC1 | inactive: -1.96% | –
CCOc1cccc(C2c3c(oc4ccc(F)cc4c3=O)C(=O)N2c2cc(C)ccn2)c1 (stereo unspecified) | inactive: 2.22% | –
Cc1cccc(CN2C(=O)c3ccccc3Sc3ccc(C(=O)NCCCN4CCOCC4)cc32)c1 | inactive: -22.7% | –
O=C(Nc1nc2ccccc2n1CCOc1ccccc1Cl)c1ccccc1 | inactive: 64.3% | –
COc1c(O)cc2c(c1O)[C@@H]1O[C@H](CO)[C@@H](O)[C@H](O)[C@H]1OC2=O | inactive: 2.93% | –
CCN(CC)S(=O)(=O)c1nnc(NC(=O)c2ccc(C)cc2)s1 | inactive: 5.48% | –

Compound | activity change, negative = inhibition | Potency
COc1ccccc1C1C(C(=O)Nc2ccccc2)=C(C)Nc2nc(-c3ccccc3)nn21 (stereo unspecified) | inactive: -14.8% | –
CC(=O)N1CCc2cc(S(=O)(=O)NC(Cc3ccccc3)C(=O)Nc3cc(C)cc(C)c3)ccc21 (stereo unspecified) | inactive: -23.3% | –
CC1CCCCN1CCCNC(=O)Cn1ncc2c3ccccc3n(Cc3ccccc3)c2c1=O (stereo unspecified) | inactive: 16.9% | –
Cc1ccc(Cl)cc1N1CCN(C(=O)CCc2nnc3n(C)c(=O)c4ccccc4n23)CC1 | inactive: -10.6% | –
CCN(Cc1ccccc1)C(=O)c1cn(-c2cccc(OC)c2)c(=O)c2ccccc12 | inactive: -12.8% | –
O=C(Cn1ncc2c3ccccc3n(Cc3ccccc3)c2c1=O)NCCCN1CCCCC1 | inactive: 9.07% | –
COc1ccc(-c2cc(C(=O)Oc3ccc(C#N)cc3)no2)cc1 | inactive: 9% | –
COc1ccc(C(C)=O)c(O)c1 | inactive: -8.01% | –
COc1ccc(CNC(=O)C(CC(C)C)NS(=O)(=O)c2ccc3c(c2)CCN3C(C)=O)cc1 (stereo unspecified) | inactive: -5.27% | –
CCCc1cc(=O)[nH]c(SCc2nc(-c3ccccc3)no2)n1 | inactive: 0.445% | –
COc1ccc(Nc2nnc(-n3nc(C)cc3C)c3ccccc23)cc1 | inactive: -6.57% | –
CNC(=O)c1c(I)c(NC(=O)CCCCC(=O)Nc2c(I)c(C(=O)O)c(I)c(C(=O)NC)c2I)c(I)c(C(=O)O)c1I | inactive: -21% | –
O=C(NCCOCCn1c(=O)oc2ccccc21)Nc1ccc(F)cc1F | inactive: -19% | –
COc1cc(Br)cc2cc(S(=O)(=O)c3ccccc3)c(=O)oc12 | inactive: -12.1% | –
CCCSCCCNC(=O)c1sc2nc(C)cc(C)c2c1-n1cccc1 | inactive: -7.19% | –
COc1cccc(NCc2nnc3n2CCCCC3)c1 | inactive: 3.84% | –
Cc1ccc(-c2noc(-c3cccnc3N(C)Cc3ccc(Cl)cc3)n2)cc1 | inactive: 3.13% | –
CCOc1ccc(NC(=O)CN(c2ccc(C)cc2)S(=O)(=O)c2cccs2)cc1 | inactive: -6.08% | –
COc1cccc(CNC(=O)c2ccc3nc(CCc4ccccc4)oc3c2)c1OC | inactive: -0.895% | –
COc1ccc(-c2nc3ccccc3s2)cc1NC(=O)c1cccc(F)c1 | inactive: -19.2% | –
Cc1ccc(-n2nc(C)c3c(C)c(CCC(=O)NCc4ccc(Cl)cc4)c(C)nc32)cc1 | inactive: -17.5% | –
CCOc1ccc(CNCCSc2nnnn2C)cc1 | inactive: -10.4% | –
CCOc1ccc(NC(=O)Cn2nc(CC)n3c(cc4sccc43)c2=O)cc1 | inactive: 8.02% | –
Cc1ccc2c(c1)c1c(c(=O)n(-c3cccc(Cl)c3)c(=O)n1CC(N)=O)n2C | inactive: -13.3% | –

Compound | activity change, negative = inhibition | Potency
COc1ccc(OCC(=O)Nc2cc(-c3nc4ccccc4o3)ccc2Cl)cc1 | inactive: 49% | –
CCC(=O)N1CCc2cc(S(=O)(=O)NCCC(=O)Nc3ccc(C)cc3C)ccc21 | inactive: -23.9% | –
COc1ccccc1OCCNCC(O)COc1cccc2[nH]c3ccccc3c12 (stereo unspecified) | inactive | –
Cc1ccc(NC(=O)CN2C(=O)c3ccccc3Sc3ccc(C(=O)N4CCOCC4)cc32)cc1C | inactive: -31.3% | –
CC1CCc2noc(NC(=O)c3ccc([N+](=O)[O-])cc3)c2C1 (stereo unspecified) | inactive: -1.74% | –
Cc1ccc(NC(=O)CSc2nc3nccnc3c(=O)n2CCc2c[nH]c3ccccc23)cc1C | inactive: -13.9% | –
CC(=O)c1cccc(NC(=O)c2cc3sc(Cl)cc3n2C)c1 | inactive: 24.1% | –
Cc1ccc(CNC(=O)Cn2ccn(-c3ccc(F)c(F)c3)c(=O)c2=O)cc1 | inactive: -7.6% | –
CCC(Sc1nc2ccncc2[nH]1)C(=O)Nc1cc(C)ccc1C (stereo unspecified) | inactive: -35% | –
CCCn1c(=N)c(C(=O)NCc2ccco2)cc2c(=O)n3cc(C)ccc3nc21 | inactive: 1.86% | –
CCn1cc(/C=C(\NC(=O)c2ccccc2Cl)C(=O)NCCCn2ccnc2)c2ccccc21 | inactive: -11.7% | –
Cc1ccc(C2N3CC4(C)CN2CC(c2ccccc2)(C3)C4=O)cc1 (stereo unspecified) | inactive: -19.2% | –
CCOCCCNC(=O)C(c1ccc(Cl)cc1)N(Cc1ccc2c(c1)OCO2)C(=O)c1ccc(NC(C)=O)cc1 (stereo unspecified) | inactive: -15.5% | –
CC(C)c1nc(CN(C)C(=O)N[C@H](C(=O)N[C@@H](Cc2ccccc2)C[C@H](O)[C@H](Cc2ccccc2)NC(=O)OCc2cncs2)C(C)C)cs1 | inactive | –
CCC(=O)Nc1ccc(-c2nc3ncccc3o2)cc1C | inactive: 30.8% | –
Cc1ccc(Cl)cc1NC(=O)c1cc(S(=O)(=O)N2CCOCC2)cn1C | inactive: -1.05% | –
COc1ccccc1CNS(=O)(=O)c1c(C)nc2sc(C)cn2c1=O | inactive: -0.638% | –
CC1CCN(S(=O)(=O)c2ccc3c(c2)N(CC(=O)NCCN(C)C)C(=O)CS3)CC1 | inactive: 0.515% | –
COC(=O)c1cc(NC(=O)Cn2ncc3c([nH]c4ccccc43)c2=O)cc(C(=O)OC)c1 | inactive: -2.05% | –
CCCCN(C)C(=O)C1CCC(Cn2c(=O)[nH]c3ccsc3c2=O)CC1 (stereo unspecified) | inactive: -9.69% | –
O=C(Cn1c(=O)c2cccn2c2ccc(F)cc21)Nc1cccc(F)c1 | inactive: -20.3% | –
OC(c1ccccc1)c1nc2ccccc2n1Cc1c(F)cccc1Cl (stereo unspecified) | inactive: -6.92% | –
Fc1ccc(-n2nc(-c3ccccc3)c3cnc4ccccc4c32)cc1Cl | inactive: 13% | –
CCOc1ccc(-c2cc3c(=O)n(CC(=O)NCc4ccccc4)ccn3n2)cc1 | inactive: 33.4% | –
